# The list shows a part of the results. The full chains were built here from the parent and the listed change. Inactive controls read about 0.05.
# B1: TEV protease; numbered along this chain (parent)
# chain: MGESLFKGPRDYNPISSSICHLTNESDGHTTSLYGIGFGPFIITNKHLFRRNNGTLVVQSLHGVFKVKDTTTLQQHLVDGRDMIIIRMPKDFPPFPQKLKFREPQREERICLVTTNFQTKSMSSMVSDTSCTFPSGDGIFWKHWIQTKDGQCGSPLVSTRDGFIVGIHSASNFTNTNNYFTSVPKNFMELLTNQEAQQWVSGWRLNADSVLWGGHKVFMVKPEEPFQPVKEATQL
# Variants of: B1
# Experiment: raw area under fraction-flipped curve 0-4 h after induction (AUC4h, not background-subtracted), DNA-recorder readout of cleavage of the substrate (dimensionless); higher = more cleavage of the substrate by the protease variant
# Conditions: temperature: 34 °C; time window: 0-4 h after rhamnose induction
# 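Note: Bxb1 expression induced with 0.2% (w/v) L-rhamnose at OD600 near 0.5, cultures sampled hourly, flipped fraction per protease–substrate barcode pair counted by paired-end Illumina sequencing.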
Variant,area with substrate ENLYFHS,area with substrate ENLYFKS,area with substrate ENLYFMS,area with substrate ENLYFNS,area with substrate ENLYFPS,area with substrate ENLYFTS,area with substrate ENLYFIS,area with substrate ENLYFSS,area with substrate ENLYFRS,area with substrate ENLYFVS
MGESLFKGPRDYNPISSSICHLTNESDGHTTSLYGIGFGPFIITNKHLFRRNNGTLVVQSLHGVFKVKDTTTLQQHLVDGRDMIIIRMPKDFPPFPQKTKFREPQREERICLVTTNFQTKSMSSMVSDTSCTFPSGDGIFWKHWIQTKDGQCGSPLVSTRDGFIVGIHSASNFTNTNNYFTSVPKNFMELLTNQEAQQWVSGWRLNADSVLWGGHKVFMVKPEEPFQPVKEATQL [L99T],0.0689,0.0761,0.0436,0.0564,0.0524,0.0486,,,,
MGESLFKGPRDYNPISSSICHLTNESDGHTTSLYGIGFGPFIITNKHLFRRNNGTLVVQSLHGVFKVKDTTTLQQHLVDGRDMIIIRMPKDFPPFPQKLKFREPQREERICLVTTNFQTKSMSSMVSDTSCTFPSGDGIFWKHWIQTKDGQCGSPLVSTRDGFIVGIHSNSNFTNTNNYFTSVPKNFMELLTNQEAQQWVSGWRLNADSVLWGGHKVFMVKPEEPFQPVKEATQL [A170N],0.0515,,0.0544,0.0594,,,0.0519,0.0405,,
MGESLFKGPRDYNPISSSICHLTNESDGHTTSLYGIGFGPFIITNKHLFRRNNGTLVVQSLHGVFKVKDTTTLQQHLVDGRDMIIIRMPKDFPPFPQKLKFREPQREERICLVTTNFQTKSMSSMVSDTSCTFPSGDGIFWKHWIQTKDGQCGSPLVSTRDGFIVGIHSASNFTNTNNYFTSVPKNFMELLTNQEAQQWVSGWRPNADSVLWGGHKVFMVKPEEPFQPVKEATQL [L205P],,0.0486,,,0.0632,,0.057,,0.0514,0.0603
MGESLFKGPRDYNPISSSICHLTNESDGHTTSLYGIGFGPFIITNKHLFRRNNGTLVWQSLHGVFKVKDTTTLQQHLVDGRDMIIIRMPKDFPPFPQKLKFREPQREERICLVTTNFQTKSMSSMVSDTSCTFPSGDGIFWKHWIQTKDGQCGSPLVSTRDGFIVGIHSASNFTNTNNYFTSVPKNFMELLTNQEAQQWVSGWRLNADSVLWGGHKVFMVKPEEPFQPVKEATQL [V58W],,0.0314,,,,,0.0258,,,
MGESLFKGPRDYNPISSSICHLTNESDGHTTSLPGIGFGPFIITNKHLFRRNNGTLVVQSLHGVFKVKDTTTLQQHLVDGRDMIIIRMPKDFPPFPQKLKFREPQREERICLVTTNFQTKSMSSMVSDTSCTFPSGDGIFWKHWIQTKDGQCGSPLVSTRDGFIVGIHSASNFTNTNNYFTSVPKNFMELLTNQEAQQWVSGWRLNADSVLWGGHKVFMVKPEEPFQPVKEATQL [Y34P],,,0.0451,,,,0.0533,0.069,,0.0478
MGESLFKGPRDYNPISSSICHLTNESDGHTTSLYGIGFGPFIITNKHLFRRNNGTLVVQSLEGVFKVKDTTTLQQHLVDGRDMIIIRMPKDFPPFPQKLKFREPQREERICLVTTNFQTKSMSSMVSDTSCTFPSGDGIFWKHWIQTKDGQCGSPLVSTRDGFIVGIHSASNFTNTNNYFTSVPKNFMELLTNQEAQQWVSGWRLNADSVLWGGHKVFMVKPEEPFQPVKEATQL [H62E],,0.0466,0.0637,0.0794,0.0561,,0.0549,0.0625,0.0666,
MGESLFKGPRDYNPISSSICHLTNESDGHTTSLYGIGFGPFIITNKHLFRRNNGTLVVQSLHGVFKVKDTTTLQQHLVDGRDMIIIRMPKDFPPFPQKLKFREPQREERICLVTTNFQTKSMSSMVSDTSCTFPSGDGIFWKHWIQTKDGQCGSPLVSTRDGFIVGIHSASNFTNTNPYFTSVPKNFMELLTNQEAQQWVSGWRLNADSVLWGGHKVFMVKPEEPFQPVKEATQL [N178P],,,0.0586,,,0.0397,0.0619,,,
MGESLFKGPRDYNPISSSICHLTNESDGHTTSLYGIGFGPFIITNKHLFRRNNGTLVVQSLHGVFKVKDTTTLQQHLVDGRDMIIIRMPKDFPPFPVKLKFREPQREERICLVTTNFQTKSMSSMVSDTSCTFPSGDGIFWKHWIQTKDGQCGSPLVSTRDGFIVGIHSASNFTNTNNYFTSVPKNFMELLTNQEAQQWVSGWRLNADSVLWGGHKVFMVKPEEPFQPVKEATQL [Q97V],,,,,0.0447,,,,,0.0856
MGESLFKGPRDYNPISSSICHLTNESDGHTTSLYGIGFGPFIITNKHLFRRNNGTLVVQSLHGVFKVKDTTTLQQHLVDGRDMIIIRMPKDFPPFPQKLKFREPQREERICLVTTNFQTKSMSSMVSDTSCTFPSGDGIFWKHWIQTKDGQCGSPLVSTRDGGIVGIHSASNFTNTNNYFTSVPKNFMELLTNQEAQQWVSGWRLNADSVLWGGHKVFMVKPEEPFQPVKEATQL [F163G],,,0.0587,,,,,,,
MGESLFKGPRDYNPISSSICHLTNESDGHTTSLYGIGFGPFIITNKHLFRRNNGTLVVQSLHGVFKVKDTTTLQQHLVDGRDMIIIRMPKDFPPFPQKLKFREPQREERICLVTTNFQTKSMSSMVSDTSCTFPSGDGIFWKHWIQTKDGQCGSPLVSTRDGFIVGIHSASNFTNTNNYFTSVPKNFMELLTNQEAQQWVSGWRLNADSVLWGGHKVFMVKPEEPFQPVKEATQR [L235R],,,0.0591,,0.0539,,,,,
MGESLFKGPRDYNPISSSICHLTNESDGHTTSLYGIGFGPFIITNKHLFRRNNGTLVVQSLHGVFKVKDTTTLQLHLVDGRDMIIIRMPKDFPPFPQKLKFREPQREERICLVTTNFQTKSMSSMVSDTSCTFPSGDGIFWKHWIQTKDGQCGSPLVSTRDGFIVGIHSASNFTNTNNYFTSVPKNFMELLTNQEAQQWVSGWRLNADSVLWGGHKVFMVKPEEPFQPVKEATQL [Q75L],,,,,0.0684,,,,,
MGESLFKGPRDYNPISSSICHLTNESDGHTTSLYGIGFGPFIITNKHLFRRNNGTLVVQSLHGVFKVKDTTTLQQHLVDGRDMIIIRMPKDFPPFPQKLKFREPQREERICLVTTNFQTKSMSSMVSDTSCTFPSGDGIFWKHWIQTKDGQCGSPLVSWRDGFIVGIHSASNFTNTNNYFTSVPKNFMELLTNQEAQQWVSGWRLNADSVLWGGHKVFMVKPEEPFQPVKEATQL [T159W],,,,,,0.0416,,,,

# Same assay, conditions: temperature: 34 °C; time window: 0-4 h after rhamnose induction
Variant,area with substrate ENLYFWS,area with substrate ENLYFYS,area with substrate ENLYFLS
MGESLFKGPRDYNPISSSICHLTNESDGHTTSLYGIGFGPFIITNKHLFRRNNGTLVWQSLHGVFKVKDTTTLQQHLVDGRDMIIIRMPKDFPPFPQKLKFREPQREERICLVTTNFQTKSMSSMVSDTSCTFPSGDGIFWKHWIQTKDGQCGSPLVSTRDGFIVGIHSASNFTNTNNYFTSVPKNFMELLTNQEAQQWVSGWRLNADSVLWGGHKVFMVKPEEPFQPVKEATQL [V58W],0.0409,,
MGESLFKGPRDYNPISSSICHLTNESDGHTTSLPGIGFGPFIITNKHLFRRNNGTLVVQSLHGVFKVKDTTTLQQHLVDGRDMIIIRMPKDFPPFPQKLKFREPQREERICLVTTNFQTKSMSSMVSDTSCTFPSGDGIFWKHWIQTKDGQCGSPLVSTRDGFIVGIHSASNFTNTNNYFTSVPKNFMELLTNQEAQQWVSGWRLNADSVLWGGHKVFMVKPEEPFQPVKEATQL [Y34P],,0.0522,
MGESLFKGPRDYNPISSSICHLTNESDGHTTSLYGIGFGPFIITNKHLFRRNNGTLVVQSLEGVFKVKDTTTLQQHLVDGRDMIIIRMPKDFPPFPQKLKFREPQREERICLVTTNFQTKSMSSMVSDTSCTFPSGDGIFWKHWIQTKDGQCGSPLVSTRDGFIVGIHSASNFTNTNNYFTSVPKNFMELLTNQEAQQWVSGWRLNADSVLWGGHKVFMVKPEEPFQPVKEATQL [H62E],,0.0465,
MGESLFKGPRDYNPISSSICHLTNESDGHTTSLYGIGFGPFIITNKHLFRRNNGTLVVQSLHGVFKVKDTTTLQQHLVDGRDMIIIRMPKDFPPFPVKLKFREPQREERICLVTTNFQTKSMSSMVSDTSCTFPSGDGIFWKHWIQTKDGQCGSPLVSTRDGFIVGIHSASNFTNTNNYFTSVPKNFMELLTNQEAQQWVSGWRLNADSVLWGGHKVFMVKPEEPFQPVKEATQL [Q97V],,,0.0599
MGESLFKGPRDYNPISSSICHLTNESDGHTTSLYGIGFGPFIITNKHLFRRNNGTLVVQSLHGVFKVKDTTTLQQHLVDGRDMIIIRMPKDFPPFPQKLKFREPQREERICLVTTNFQTKSMSSMVSDTSCTFPSGDGIFWKHWIQTKDGQCGSPLVSTRDGFIVGIHSASNFTNTNNYFTSVPKNFMELLTNQEAQQWVSGWRLNADSVLWGGHKVFMVKPEEPFQPVKEATQR [L235R],0.0731,,
MGESLFKGPRDYNPISSSICHLTNESDGHTTSLYGIGFGPFIITNKHLFRRNNGTLVVQSLHGVFKVKDTTTLQQHLVDGRDMIIIRMPKDFPPFPQKLKFREPQREERICLVTTNFQTKSMSSMVSDTSCTFPSGDGIFWKHWIQTKDGQCGSPLVSWRDGFIVGIHSASNFTNTNNYFTSVPKNFMELLTNQEAQQWVSGWRLNADSVLWGGHKVFMVKPEEPFQPVKEATQL [T159W],0.0454,,
MGESLFKGPRDYNPISSSICHLTNESDGHTTSLYGIGFGPFIITNKHLFRRNNGTLVVQSLHGVFKVKDTTTLQQHLVDGRDMIIIRMPKDFPPFPQKLKFREPQREERICLVTTNFQTKSMSSMVSDTSLTFPSGDGIFWKHWIQTKDGQCGSPLVSTRDGFIVGIHSASNFTNTNNYFTSVPKNFMELLTNQEAQQWVSGWRLNADSVLWGGHKVFMVKPEEPFQPVKEATQL [C131L],,0.0446,

# Reference: the supplement of paper PMC12217912
